Assay results from PubChem BioAssay AID1159614 (National Center for Advancing Translational Sciences (NCATS), 2016).
Screen size: about 45,000 compounds; about 65 (0.1%) were called active. The call rests on the fitted dose curve; in most records, active means well fitted activation curve with a large enough effect; inconclusive means small, poorly fitted or top-dose-only effect; inactive means no such curve, though single readings can be large or run the other way. The list shows a part of the results.

Target: Galactocerebrosidase (Homo sapiens) (UniProt P54803)
Assay: A Novel Cell-Based Assay to Identify Small Molecules for B -Galactocerebrosidase; further: 0% is about no effect; nearly all actives have a fitted effect of over 65% in size
Conditions: 145M-Twi-hGALC-G270D cells (Twitcher mouse brain line with human GALC G270D), HMU-beta-Gal fluorescence, 48 h; series mostly up to 57.5 µM; activation: at the top concentration
Outline: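 Fluorogenic HMU-b-Gal hydrolysis (0.1 mM final, pH 5.2 citrate-phosphate with 1 mg/mL sodium taurocholate; carbonate stop buffer) measures mutant GALC activity after compound treatment of live 145M-Twi Twitcher brain cells stably carrying human GALC-G270D, with wild-type GALC line alongside; activation sought.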

Sequence of UniProt P54803 (P54803 whole entry, looked up): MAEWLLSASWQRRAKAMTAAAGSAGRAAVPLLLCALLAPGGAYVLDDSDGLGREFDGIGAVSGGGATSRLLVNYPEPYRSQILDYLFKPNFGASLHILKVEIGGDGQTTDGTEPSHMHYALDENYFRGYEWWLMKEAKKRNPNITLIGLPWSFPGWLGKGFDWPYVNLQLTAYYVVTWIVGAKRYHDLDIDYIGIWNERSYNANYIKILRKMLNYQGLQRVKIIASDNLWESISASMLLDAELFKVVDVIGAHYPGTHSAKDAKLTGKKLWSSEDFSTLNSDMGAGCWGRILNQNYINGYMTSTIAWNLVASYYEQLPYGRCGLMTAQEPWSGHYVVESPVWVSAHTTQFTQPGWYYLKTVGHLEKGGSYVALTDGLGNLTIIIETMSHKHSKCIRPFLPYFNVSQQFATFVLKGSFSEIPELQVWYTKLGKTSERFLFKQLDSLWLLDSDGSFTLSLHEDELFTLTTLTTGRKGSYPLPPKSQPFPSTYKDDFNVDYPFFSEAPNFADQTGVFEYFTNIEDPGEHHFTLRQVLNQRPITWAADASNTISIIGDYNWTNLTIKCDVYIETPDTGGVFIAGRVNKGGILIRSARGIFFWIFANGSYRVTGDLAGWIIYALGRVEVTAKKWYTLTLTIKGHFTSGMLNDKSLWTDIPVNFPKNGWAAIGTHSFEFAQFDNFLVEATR

activation, inactive:
COc1ccc2[nH]cc(S(=O)(=O)c3ccc(C)c(C)c3)c(=O)c2c1 -2.61%
COc1ccc(-c2nn(-c3cccc(F)c3)c3c2cnc2cc(OC)c(OC)cc23)cc1 -1.82%
O=C(NC1CC(=O)N(c2ccc(F)cc2)C1)C1CC1 (configuration not stated) 7.08%
CC(C)NC(=O)CCN1C(=O)c2ccccc2Sc2ncccc21 -5.04%
Cc1ccc(NC(=O)Cn2nnc(C(=O)NCc3ccc4c(c3)OCO4)c2N)cc1Cl 0.594%
COc1ccc2oc(=O)c(-c3nc(-c4cccs4)no3)cc2c1 -13.3%
CCc1ccc(NC(=O)Cn2cc(S(=O)(=O)N3CCCC3)c(S(=O)(=O)N3CCCC3)c2)cc1 -7.16%
CC(=O)c1ccc(OCC(=O)N2CCCCC2)cc1 -33.2%
Cc1cc(C)cc(NC(=O)CCCc2nc(-c3ccccc3Cl)no2)c1 -12.6%
CSc1nc2sc3c(c2c(=O)n1-c1ccccc1)CCC(C(C)(C)C)C3 (configuration not stated) -7.4%
CCOCC(O)COc1ccc(NC(=O)CC[S+](C)C)cc1 (configuration not stated) -3.76%
Cn1c(=O)n(CCCc2ccccc2)c(=O)c2c1nc1n2CCN1c1ccc(F)cc1 -0.554%
CCOC(=O)c1cc2c(=O)n3ccccc3nc2n(Cc2ccco2)c1=NC(=O)c1ccc(OCC)cc1 -7.52%
COc1cc(OC)c(N(C)C(=O)c2sc3nc4n(c(=O)c3c2C)CCCC4)cc1Cl -19.2%
Cc1nn(C(=O)c2ccc(Br)cc2)c(C)c1Sc1ccccc1 -1.73%
CCCCOC(=O)c1ccc(NC(=O)c2cnc3ccc(C)cn3c2=O)cc1 -11.5%
CCn1c(=O)cc(OCC(=O)N2CCN(c3ccc(F)cc3)CC2)c2ccccc21 -0.144%
CCN(c1cccc(C)c1)c1ncnc2c1cnn2-c1cccc(Cl)c1 -14.2%
Cc1ccc(NC(=O)Cn2c(=O)n(Cc3nc(-c4ccccc4)no3)c(=O)c3cc4c(cc32)OCO4)c(C)c1 -12.6%
CCN1/C(=C/C=C/c2sc3ccccc3[n+]2CC)Sc2ccccc21 -13.7% [at 23.8 µM]
COc1ccc(Nc2c(-c3ccccn3)nc3ccc(Cl)cn23)cc1 -25.9%
COc1cccc(Nc2nc3ccc(C)cc3nc2-n2nc(C)cc2C)c1 -6.29%
CCc1ccc(-n2c(=O)c3cccnc3n2CC(=O)NCc2ccc(C)cc2)cc1 -32.2%
Cc1ccc(NC(=O)C2=CC(c3ccc4c(c3)OCO4)=NS(=O)(=O)N2C)cc1 -15.8%
COc1ccc(Cl)cc1NC(=O)CSC1=Nc2ccccc2C2=NC(CC(=O)NCc3cccs3)C(=O)N12 (configuration not stated) -21.6%
COc1ccc(CCNC(=O)CSc2n[nH]c(-c3ccccc3Cl)n2)cc1OC -6.86%
O=C(NCc1ccccc1)c1cnc(N2CCCCC2)c2ccccc12 -2.33%
COc1ccc2c(c1)c1c(c(=O)n(-c3ccccc3C)c(=O)n1Cc1c(F)cccc1Cl)n2C -13.9%
CCCCN(C)C(=O)Cn1c(SCC(=O)Nc2ccc(C)c(C)c2)nc2ccccc21 -7.58%
CCOC(=O)C1(C)C=C(Nc2ccc(C(=O)O)cc2)C(=O)N1c1ccc(C(=O)O)cc1 (configuration not stated) -16.4%
Cc1nc2ccccc2n1CCc1nc2c3ccccc3nc(SCc3ccc(F)cc3)n2n1 0.755%
CCOC(=O)c1c(C)oc2nc(C)nc(NCC3CCN(Cc4cccc(Cl)c4)CC3)c12 2.18%
COc1ccccc1N1CCN(CC(O)COc2ccc(C)cc2C(C)(C)C)CC1 (configuration not stated) -28.8%
Cc1ccc(C)c(N2CCN(CCCNC(=O)Nc3ccc(Cl)cc3)CC2)c1 -18.5%
Cc1cccc(NC(=O)C2CCCN(c3nc4ccccc4s3)C2)c1C (configuration not stated) -11.9%
CCOC(=O)C1CCCN(C(=O)Cn2nc(CC)n3c(cc4occc43)c2=O)C1 (configuration not stated) -12.8%
CC(=O)c1ccc(N2C(=O)N(Cc3cc(C)ccc3C)c3ccccc3S2(=O)=O)cc1 -9.08%
O=S(=O)(Nc1ccc(Cl)cc1)c1cccc(S(=O)(=O)c2ccc(Cl)c(Cl)c2)c1 -11.1%
Cc1cc(Nc2ccc(F)cc2)nc(-n2nc(C)cc2C)n1 -3.06%
Cc1ccc(CCNC(=O)c2ccc(CS(=O)(=O)Cc3ccccc3F)o2)cc1 3.59%
CCOc1ccccc1NC(=O)CN1C=NS(=O)(=O)c2ccccc21 -16%
Cc1ccc(NC(=O)CCNS(=O)(=O)c2ccc3c(c2)CCCC(=O)N3)cc1 -11.7%
Cc1ccc(C(=O)Nc2ccc3nc(N4CCCCC4)cc(C)c3c2)cc1F -17.2%
COc1cccc2cc(-c3nc(-c4ccc(C)cc4)c(C)s3)c(=O)oc12 -16.8%
COc1ccc(NC(=O)Cn2c(=O)n(-c3ccc(C)c(C)c3)c(=O)c3c(C)c(C)sc32)cc1 -9.21%
COc1cccc(N2CC(NC(=O)C3CC3)CC2=O)c1 (configuration not stated) -14.9%
CCOc1ccccc1O[C@H](c1ccccc1)[C@H]1CNCCO1 -11.5%
CCc1cccc(C)c1NC(=O)CCn1nc(C)c2c(C)n(-c3ccccc3)nc2c1=O -19.8%
CC1=C(C(=O)Nc2cccc(C(F)(F)F)c2)C(c2ccccc2)n2ncnc2N1 (configuration not stated) -0.937%
COc1ccc(NC(=O)Cc2noc3ccc(C)cc23)cc1Cl -0.621%
CCC(C)NC(=O)Cn1c(=O)ccc2cc(S(=O)(=O)N3CCCC3)ccc21 (configuration not stated) -12.2%
CCCN(C(=O)c1cc2c(=O)oc3ccccc3c2s1)c1ccccc1C -17.4%
CCOC(=O)c1c(S(=O)(=O)N2CCC(C(=O)Nc3cccc(C)n3)CC2)c(C)n(C)c1C -13%
COCC(=O)N1c2nc(-c3ccco3)nn2C2(CCCCC2)[C@@H]2CCCC[C@@H]21 -9.4%
CCc1ccc2c(c1)c(=O)c(S(=O)(=O)c1ccccc1)cn2CC(=O)Nc1ccc(OC)cc1 -9.33%
Cc1ccc(NC(=O)Cn2nnc(C(=O)NCCc3ccccc3)c2N)cc1Cl -5.99%
Cc1ccc(CCNC(=O)c2ccc(NC(=O)N3CCSc4ccccc43)cc2)cc1 -8.79%
CCOc1ccc2c(c1)c(=O)c(C(=O)c1ccc(CC)cc1)cn2CC(=O)Nc1ccccc1C -10.5%
Cc1ccc(C)c(N2CCN(c3nc4c(S(=O)(=O)c5ccccc5)nnn4c4ccc(Cl)cc34)CC2)c1 -15.5%
COc1ccc(N2CCN(c3cc(C)nc4nncn34)CC2)cc1 -12.7%
Cc1ccc(S(=O)(=O)NCCc2csc3nc(-c4ccccc4C)nn23)cc1 -3.24%
Cc1ccc(CNC(=O)C(C)n2ccc3cc(S(=O)(=O)N4CCCC4)ccc32)cc1 (configuration not stated) -9.83%
